Experimental data: PubChem BioAssay AID1159614 (National Center for Advancing Translational Sciences (NCATS), 2016)
The campaign covered roughly 45,000 compounds. About 65 (0.1%) were called active. The call rests on the fitted dose curve; in most records, active means well fitted activation curve with a large enough effect; inconclusive means small, poorly fitted or top-dose-only effect; inactive means no such curve, though single readings can be large or run the other way. The list shows a part of the results.

Biological target: Galactocerebrosidase (Homo sapiens) (UniProt P54803)
UniProt P54803, sequence (P54803 whole entry, looked up): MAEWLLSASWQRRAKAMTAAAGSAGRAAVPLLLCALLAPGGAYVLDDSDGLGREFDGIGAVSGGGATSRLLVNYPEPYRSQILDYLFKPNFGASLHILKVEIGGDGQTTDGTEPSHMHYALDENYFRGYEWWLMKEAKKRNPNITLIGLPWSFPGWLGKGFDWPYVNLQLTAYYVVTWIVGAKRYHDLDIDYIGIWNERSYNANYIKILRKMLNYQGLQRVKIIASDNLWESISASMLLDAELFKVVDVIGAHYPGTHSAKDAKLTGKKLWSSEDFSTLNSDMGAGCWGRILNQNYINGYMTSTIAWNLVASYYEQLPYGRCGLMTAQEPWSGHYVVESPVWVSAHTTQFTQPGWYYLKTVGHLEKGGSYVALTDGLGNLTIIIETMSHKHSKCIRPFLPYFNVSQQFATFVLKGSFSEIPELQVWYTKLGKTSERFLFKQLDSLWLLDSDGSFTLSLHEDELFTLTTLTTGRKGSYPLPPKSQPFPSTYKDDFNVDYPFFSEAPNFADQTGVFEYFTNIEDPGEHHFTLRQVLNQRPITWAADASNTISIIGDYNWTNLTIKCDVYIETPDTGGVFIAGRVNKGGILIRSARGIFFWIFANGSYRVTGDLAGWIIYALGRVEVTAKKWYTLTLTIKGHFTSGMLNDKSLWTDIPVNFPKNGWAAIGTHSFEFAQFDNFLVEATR
Assay: A Novel Cell-Based Assay to Identify Small Molecules for B -Galactocerebrosidase; further: 0% is about no effect; nearly all actives have a fitted effect of over 65% in size
Conditions: 145M-Twi-hGALC-G270D cells, HMU-beta-Gal fluorescence, 48 h; series mostly up to 57.5 µM; activation: at the top concentration
Procedure, shortened: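 qHTS, 1536-well; 145M-Twi-hGALC-G270D cells (WT line also made) in DMEM/F12 + 10% FBS; compound incubation on live cells; HMU-β-gal 0.1 mM final, pH 5.2, NaTC; carbonate stop; fluorescence increase = enhanced residual activity.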

| Structure (SMILES) | activation |
| --- | --- |
| COc1ccccc1OCc1nnc(-c2ccccc2)o1 | inactive: -23.5% |
| CCCCOC(=O)c1ccc(OC(=O)c2sc3ncn(Cc4ccccc4Cl)c(=O)c3c2C)cc1 | inactive: -4.22% |
| CCOc1ccc(CNCCCSc2nnnn2C)cc1OC | inactive: -15.6% |
| O=C(CSc1nc(=O)n(Cc2ccco2)c2c1CCC2)Nc1cccc(F)c1 | inactive: -19.1% |
| COc1cccc(CNC(=O)Cc2csc3nc(-c4ccccc4)cn23)c1 | inactive: -3.29% |
| Cc1ccc(Cl)cc1Nc1sc(C(=O)c2ccc(F)cc2)c(N)c1S(C)(=O)=O | inactive: -10.8% |
| COc1ccccc1N1CCN(C(c2ccc(Cl)cc2)c2nnc(-c3cccc(F)c3)o2)CC1 (centres undefined) | inactive: -15.8% |
| O=C(Nc1ccc(Cl)c(-c2nc3ccccc3o2)c1)c1ccc(-c2cccc([N+](=O)[O-])c2)o1 | inactive: -8.61% |
| Cc1ccccc1Nc1c(-c2ccc(Br)cc2O)nc2sccn12 | inactive: -7.28% |
| CCOc1ccc(NC(=O)Cn2cc(C(=O)c3ccc(OC)cc3)c(=O)c3cc4c(cc32)OCO4)cc1 | inactive: -22% |
| COc1ccc(CC(=O)Nc2sc3c(c2C(=O)Nc2cccc(C)c2)CCCCC3)cc1 | inactive: -23.8% |
| COc1ccccc1CNC(=O)c1cnc(N(C)C)nc1 | inactive: -0.98% |
| CCCSc1oc(-c2ccco2)nc1S(=O)(=O)c1ccc(Cl)cc1 | inactive: -32.7% |
| CC1=C(c2ccc(C(C)C)cc2)S(=O)(=O)NC1=NCc1ccccc1C | inactive: -15.6% |
| CC1CCN(C(=O)CSc2c3c(nc4ccc(Cl)cc24)CCCC3)CC1 | inactive: 3.21% |
| CN(C)CCN(C(=O)c1ccco1)c1nc2c(F)cc(F)cc2s1 | inactive: -6.13% |
| O=C(COc1ccc(F)cc1)Nc1nnc(S(=O)(=O)N2CCc3ccccc32)s1 | inactive: -50.9% |
| COc1ccc(S(=O)(=O)N(CC(=O)Nc2ccc(F)c(Cl)c2)c2ccc(C)cc2)cc1OC | inactive: -17.6% |
| CCOc1ccc(N(Cc2ccccc2)C(=O)c2nc(SCC)ncc2Cl)cc1 | inactive: -14.2% |
| Cc1cccc(NC(=O)CSc2nc3ccccc3nc2N2CCC(C)CC2)c1 | inactive: -8.73% |
| Cc1nc2c3ccccc3nc(NNC(=O)CCC(=O)N3CCN(c4cccc(Cl)c4)CC3)n2n1 | inactive: -16.6% |
| Cc1ccc(N2CC(C(=O)NCCS(=O)(=O)N3CCN(c4ccccc4F)CC3)CC2=O)cc1 (centres undefined) | inactive: -9.92% |
| Cc1ccc(NC(=O)CSc2nc3ccc(Br)cc3[nH]2)c(C)c1 | inactive: -6.32% |
| Cc1ccc(Nc2cc(C)nc(-n3nc(C)cc3C)n2)cc1 | inactive: -5.9% |

| Structure (SMILES) | activation |
| --- | --- |
| O=C(Nc1ccc(OC(F)(F)F)cc1)C1CCN(S(=O)(=O)c2ccc3[nH]c(=O)ccc3c2)CC1 | inactive: -8.99% |
| COc1cccc2c1C(=O)c1c(O)c3c(c(O)c1C2=O)C[C@@](O)(C(=O)CO)C[C@@H]3O[C@H]1C[C@H](N)[C@H](O)[C@H](C)O1 | inactive: -9.78% |
| O=C(NC1CCCCC1)c1ccc2c(c1)sc1nc(-c3ccc(F)cc3)cn12 | inactive: -9.95% |
| CCOCCc1nnc(NC(=O)C(=O)c2cc(C)n(-c3cccc(C)c3)c2C)s1 | inactive: -14.3% |
| Cc1ccc(-c2noc(CNC(=O)COc3cc(C)c(Br)c(C)c3)n2)cc1 | inactive: -15.1% |
| Cn1cnc(S(=O)(=O)N2CCC(C(=O)Nc3ccc(F)cc3F)CC2)c1 | inactive: -14.3% |
| CCOc1ccc(CNC(=O)c2ccc3c(c2)sc2nc(-c4ccccc4)cn23)cc1 | inactive: -19.8% |
| O=C(NC1CCCCC1)c1ccc2c(c1)N(Cc1cccc(F)c1)C(=O)c1ccccc1S2 | inactive: -3.6% |
| COc1ccc2nc(NC(=O)c3nc(S(=O)(=O)Cc4ccccc4F)ncc3Cl)sc2c1 | inactive: -19% |
| Cc1ccc(-n2nc(C(=O)N3CCN(c4ccc(F)cc4)CC3)c(=O)n(C)c2=O)cc1 | inactive: -15.9% |
| COC(=O)c1ccc(CSc2nc3c([nH]c4ccccc43)c(=O)n2-c2ccc(F)cc2)o1 | inactive: 3.31% |
| O=C(Cn1c(=O)n(-c2ccccc2)c(=O)c2ccc(C(=O)NCc3ccc4c(c3)OCO4)cc21)Nc1ccc(F)cc1 | inactive: 5.2% |
| COc1cc(OC)c(NC(=O)Cn2c(=O)c(C(F)(F)F)nc3ccccc32)cc1Cl | inactive: 4.97% |
| CCc1cccc(NC(=O)Cn2c(=O)n(-c3ccccc3C)c(=O)c3c2c2cc(C)ccc2n3C)c1 | inactive: -1.46% |
| COc1ccc(NCc2cc3cc4c(cc3n(CC(=O)Nc3cccc(F)c3)c2=O)OCO4)cc1 | inactive: 0.0932% |
| Cc1cccc(N2CCN(S(=O)(=O)c3cn(C)c(C)n3)CC2)c1C | inactive: -9.88% |
| CCOc1ccccc1C(=O)Oc1c(S(=O)(=O)c2ccc(C)cc2)c(C)nn1-c1ccccc1 | inactive: 2.66% |
| CCCCN(C)CCCNC(=O)Cn1ncc2c3ccccc3n(Cc3cccc(Cl)c3)c2c1=O | inactive: -21.1% |
| Cc1ccccc1CN1CCc2nc(N3CCN(c4ncccn4)CC3)ncc2C1 | inactive: -12.5% |
| Cc1ccc(CNC(=O)c2ccc(CS(=O)(=O)Cc3ccc(F)cc3)o2)cc1 | inactive: -12.2% |
| CCCCc1nn2c(=O)cc(COC(=O)c3cccc(NC(=O)c4cccc(Cl)c4)c3)nc2s1 | inactive: -4.78% |
| COc1ccc(CCCc2nnc(SCC(=O)Nc3cccc(C)c3)o2)cc1C | inactive: -18.7% |
| O=C(Nc1ccc(F)cc1F)c1cccc2c1C(=O)N(C1CCCCC1)C2 | inactive: -9.14% |
| Cc1cccc(CSc2nc3c(c(=O)[nH]2)CCC3)c1 | inactive: -7.81% |

| Structure (SMILES) | activation |
| --- | --- |
| COCCNc1ccc(-c2nc(-c3ccncc3)no2)cc1[N+](=O)[O-] | inactive: -6.33% |
| COc1cccc(-n2c(SCC(=O)N3CCc4ccccc43)nc3c([nH]c4ccccc43)c2=O)c1 | inactive: 9.99% |
| COc1cc(NC(=O)CSc2nc(-c3cccs3)cc(C(F)(F)F)n2)cc(OC)c1OC | inactive: -10.6% |
| COc1ccc(-c2cc(C(F)(F)F)nc(SCC(=O)N3CCCCC3)n2)cc1OC | inactive: -10.1% |
| COc1ccc(-c2nc(SCC(=O)Nc3ccccc3)c(-c3ccc(F)cc3)[nH]2)cc1OC | inactive: -15% |
| CCc1cccc(C)c1NC(=O)C(CC)n1nc(C)c2c(C)n(-c3ccccc3)nc2c1=O (centres undefined) | inactive: -22.4% |
| CCS(=O)(=O)N1CCc2cc(C(=O)N3CCN(c4ccc(OC)cc4)CC3)ccc21 | inactive: -18.3% |
| COc1ccc(OC)c(S(=O)(=O)N2Cc3ccccc3CC2C(=O)Nc2ccc(C)cc2C)c1 (centres undefined) | inactive: -3.9% |
| CCc1ccc(C2CC(=O)c3c([nH]c(C(=O)OC4CCC(C)CC4)c3C)C2)cc1 (centres undefined) | inactive: -23.9% |
| CNC(=O)c1ccc2nc(CCc3ccccc3)oc2c1 | inactive: -13.5% |
| COc1ccc(S(=O)(=O)NCc2cccn2Cc2cccc(C)c2)cc1Cl | inactive: -40.9% |
| COc1ccc(NC(=O)c2cc(C(C)=O)n3ccccc23)cc1 | inactive: -17.4% |
| COc1ccc(NC(=O)c2oc3ccc(S(=O)(=O)N4CCCCC4)cc3c2C)cc1Cl | inactive: -15.5% |
| Cc1ccc2c(c1)C(=O)C(=O)N2Cc1ccc(OCCC(C)C)cc1 | inactive: -38.6% |
| Cc1ccc2nc(NC(=O)c3nc(SCc4ccccc4F)ncc3Cl)sc2c1 | inactive: -14.7% |
| COCCn1c(=O)[nH]c2cc(C(=O)N3CCN(c4ccc(Cl)cc4)CC3)ccc2c1=O | inactive: 0.883% |
| Cc1ccc(CN2CCC(CNC(=O)c3cnn(-c4ccccc4)c3C3CCN(C(=O)OC(C)(C)C)CC3)CC2)cc1 | inactive: -13% |
| Cc1nc(-c2ccc(Cl)cc2)sc1CCNC(=O)C(=O)Nc1ccc2c(c1)OCCO2 | inactive: -0.41% |
| O=C(CSc1nc(=O)n(Cc2cccnc2)c2c1CCC2)Nc1cccc(Cl)c1 | inactive: -9.73% |
| O=C(O)c1ccc(NCc2nc3ccccc3n2CCOc2ccccc2Cl)cc1 | inactive: -6.77% |
| CSc1ncc(Cl)c(C(=O)Nc2cc(C(F)(F)F)ccc2Cl)n1 | inactive: -12.4% |
| CCOc1cc2[nH]c(=O)n(Cc3ccc(C(=O)N4CCN(c5ccccc5)CC4)cc3)c(=O)c2cc1OCC | inactive: 0.739% |
| COc1cc2c(=O)n(Cc3ccco3)c(=O)n(CC(=O)Nc3ccc(F)cc3)c2cc1OC | inactive: 7.23% |
| COc1ccc(CNC(=O)CC(C)n2nc(C)cc2C)cc1 (centres undefined) | inactive: -19.9% |

| Structure (SMILES) | activation |
| --- | --- |
| COc1ccc(N2CC(NC(=O)C(=O)c3c[nH]c4ccccc34)CC2=O)cc1 (centres undefined) | inactive: -10.2% |
| CCN(CC)c1cc(C)c2cc(NC(=O)/C=C/c3ccccc3Cl)ccc2n1 | inactive: -5.32% |
| Cc1ccc(-c2nn(-c3ccc(F)cc3F)c3c2cnc2ccc(F)cc23)cc1 | inactive: -7.15% |
| CCOC(=O)N1CCC(NC(=O)c2cnn(-c3ccc(F)cc3)c2-n2cccc2)CC1 | inactive: -3.18% |
| COc1ccc(N(C)C(=O)c2nn(-c3ccc(C)cc3)c(=O)n(C)c2=O)c(OC)c1 | inactive: -14.4% |
| Cc1cc(C)cc(NC(=O)N2CCC(C(N)=O)(N3CCCCC3)CC2)c1 | inactive: -15.4% |
| CCCCn1cc(S(=O)(=O)c2ccccc2)c(=O)c2cc(F)c(N3CCN(CCC)CC3)cc21 | inactive: -7.46% |
| CCN1c2ccccc2-n2cccc2C12CCN(C(=O)Nc1ccccc1Br)CC2 | inactive: -6.53% |
| CC1CCCN(c2ncnc3c2cnn3-c2ccc(F)cc2)C1 (centres undefined) | inactive: -13.6% |
| CCOCCn1ccc2c(OCC(=O)NCc3ccc(F)cc3)cccc2c1=O | inactive: -14.6% |
| O=C(CSc1ncc2c(n1)-c1cc(Cl)ccc1N(Cc1ccccc1)S2(=O)=O)Nc1ccc(F)cc1F | inactive: 3.23% |
| O=c1c(N2CCN(c3ccccc3)CC2)csc2ccc(Cl)cc12 | inactive: -5.76% |
| CC(C)Oc1ccc(C(=O)N2CCN(c3nc4c(F)cc(F)cc4s3)CC2)cc1 | inactive: -15.7% |
| O=C(CCSCc1cccc(Cl)c1)NCc1ccccc1Cl | inactive: -7.61% |
| COc1ccc(NC(=O)CSC2=Nc3ccccc3C3=NC(CC(=O)NCc4ccccc4OC)C(=O)N23)cc1Cl (centres undefined) | inactive: -19.5% |
| COc1ccc(-c2nc3c4ccccc4n(CC(=O)Nc4ccc(C(C)C)cc4)c(=O)n3n2)cc1 | inactive: 2.33% |
| Cc1ccccc1-n1c(SCC(=O)Nc2ccc(Cl)cc2Cl)nc(O)cc1=O | inactive: 3.79% |
| COc1ccc(C2CC(=O)N(Cc3ccccc3C)c3c2c(C)nn3-c2nc(C)cc(C)n2)c(OC)c1 (centres undefined) | inactive: -12.6% |
| COc1ccc(-c2noc(-c3ccc(N4CCN(C)CC4)c([N+](=O)[O-])c3)n2)cc1 | inactive: -9.49% |
| COc1ccc(S(=O)(=O)c2c(O)c(C)cc(NS(=O)(=O)c3ccc(Cl)cc3)c2C(C)C)cc1 | inactive: -10% |
| Cc1cccc(N(C)S(=O)(=O)c2ccc(-c3cc(C)no3)s2)c1 | inactive: -26.4% |
| CC(=O)N1CCc2c(sc3c2c(=O)n(-c2ccc(F)cc2)c(=O)n3Cc2cc(C)ccc2C)C1 | inactive: -13.8% |
